The campaign covered roughly 310,000 compounds. About 14,000 (4.5%) showed an effect of 50% or more. The effect is printed as a negative number. Some of the results follow.
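Note: peak tail current of the secondary pulse compared with the same well before compound.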

The assay deals with human ether-à-go-go-related gene (hERG) potassium channel (human, UniProt Q12809). The experiment in a line: primary screen, population patch clamp on CHO cells stably expressing hERG.
Sequence of human ether-à-go-go-related gene (hERG) potassium channel (Q12809 whole entry, looked up): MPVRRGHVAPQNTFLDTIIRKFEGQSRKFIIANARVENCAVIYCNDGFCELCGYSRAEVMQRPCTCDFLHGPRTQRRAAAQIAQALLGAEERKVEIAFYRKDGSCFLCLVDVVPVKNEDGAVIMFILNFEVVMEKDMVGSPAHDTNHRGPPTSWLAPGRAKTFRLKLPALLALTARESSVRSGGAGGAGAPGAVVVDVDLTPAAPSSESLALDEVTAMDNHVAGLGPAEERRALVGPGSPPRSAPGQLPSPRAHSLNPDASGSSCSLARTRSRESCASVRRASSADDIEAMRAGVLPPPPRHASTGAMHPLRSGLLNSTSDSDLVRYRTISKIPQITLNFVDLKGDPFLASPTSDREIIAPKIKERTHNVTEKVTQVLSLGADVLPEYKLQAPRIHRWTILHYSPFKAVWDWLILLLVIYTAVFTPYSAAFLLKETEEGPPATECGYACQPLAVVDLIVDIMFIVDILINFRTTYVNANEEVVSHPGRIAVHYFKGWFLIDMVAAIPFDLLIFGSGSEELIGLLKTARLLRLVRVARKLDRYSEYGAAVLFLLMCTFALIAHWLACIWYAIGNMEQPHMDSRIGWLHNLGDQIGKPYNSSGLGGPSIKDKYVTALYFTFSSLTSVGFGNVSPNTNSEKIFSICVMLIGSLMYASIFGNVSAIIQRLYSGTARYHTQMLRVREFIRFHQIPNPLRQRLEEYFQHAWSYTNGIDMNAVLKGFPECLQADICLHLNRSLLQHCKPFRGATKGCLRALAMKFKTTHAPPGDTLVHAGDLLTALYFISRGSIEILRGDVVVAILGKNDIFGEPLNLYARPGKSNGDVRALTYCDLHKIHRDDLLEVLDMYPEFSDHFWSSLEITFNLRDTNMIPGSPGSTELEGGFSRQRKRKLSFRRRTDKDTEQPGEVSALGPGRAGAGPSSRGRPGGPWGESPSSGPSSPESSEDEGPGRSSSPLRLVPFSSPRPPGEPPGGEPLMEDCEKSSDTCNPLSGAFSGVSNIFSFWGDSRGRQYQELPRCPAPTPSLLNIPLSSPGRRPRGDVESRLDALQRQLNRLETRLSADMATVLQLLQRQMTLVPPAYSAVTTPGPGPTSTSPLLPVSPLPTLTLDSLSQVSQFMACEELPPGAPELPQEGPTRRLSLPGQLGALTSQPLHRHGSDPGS
On to `COc1cc(NC(=O)c2cccs2)c(OC)cc1NC(=O)CCn1nnc2ccccc21`, for which the “hERG current change (%, negative = inhibition) at 10uM” value is recorded as -42.7%.
`C/C(CCc1ccc2c(c1)OCO2)=N\N=C1\NC(=O)CC(C(=O)Nc2ccccc2F)S1` (stereo not drawn): the “hERG current change (%, negative = inhibition) at 10uM” value was 3.99%.
The result for `COc1ccc(NC(=O)Nc2ccc(F)cc2F)cc1` reads 11.9%; that for `O=C(NCc1cccnc1)c1ccc(COc2cccc3ccccc23)o1`, -11.6%.
The result for `Cc1nnc(SCC(=O)c2ccccc2F)n1Cc1ccccc1` reads -2.85%.
With `CCOc1cccc(NC(=O)c2ccc(S(=O)(=O)N3CCCC3)cc2)c1`, the “hERG current change (%, negative = inhibition) at 10uM” value is reported as -12.1%.
The result for `COc1ccc2c(C)cc(N3CCN(c4ccc(F)cc4)CC3)nc2c1` reads -25.7%.
Take `COc1cc(C(=O)OCC(=O)Nc2ccc(N3CCOCC3)cc2)ccc1OCC(C)C`: the “hERG current change (%, negative = inhibition) at 10uM” value was -4.48%.
The result for `COC(=O)CCCC1=CC2=CC(=O)C(C)(OC(=O)c3cccs3)C(=O)C2=CN1Cc1ccc2c(c1)OCO2` (stereo not drawn) reads -7.74%.
The result for `Cc1ccc(/C=C2\SC(N3CCCCC3)=NC2=O)cc1` reads 0.193%.
In the case of `Cc1c2c(nc3ccccc13)CCC(C)C2.Cl` (stereo not drawn), the “hERG current change (%, negative = inhibition) at 10uM” value is -43.1%.
Regarding `O=C(c1cccnc1)N1N=C(C2CCCCC2)CC1(O)C(F)(F)F` (stereo not drawn), the “hERG current change (%, negative = inhibition) at 10uM” value is listed as -0.742%.
The result for `Brc1ccccc1C1N=C(c2ccccc2)NO1` (stereo not drawn) reads -6.1%; that for `COc1ccc(-c2csc3ncnc(NCCCO)c23)cc1`, -13.3%; that for `O=C(Nc1ccccc1)C1C2CCC3C(CCC21)C3(Cl)Cl` (stereo not drawn), 12.2%.
The result for `O=C(CSc1nnc(-c2cccnc2)o1)Nc1ccccc1Br` reads 10.5%.
Turning to `C#Cc1ccc([C@@H]2C=C(C(=O)NCc3ccccc3)O[C@H](OCc3ccc(CO)cc3)C2)cc1`, the “hERG current change (%, negative = inhibition) at 10uM” value worked out at 6.15%.
The result for `O=S(=O)(NCC1(N2CCOCC2)CCCCC1)c1ccc(F)cc1` reads -5.62%.
For the compound `CC(=O)c1ccc(NC(=O)[C@@H]2CCCN2C(=O)OC(C)(C)C)cc1`, the “hERG current change (%, negative = inhibition) at 10uM” value is on record as 15.7%.
For `Cn1c(N)c(C(=O)COC(=O)CC(NC(=O)c2ccccc2Cl)c2ccccc2)c(=O)n(C)c1=O` (stereo not drawn), the “hERG current change (%, negative = inhibition) at 10uM” value is recorded as -38.1%.
The result for `O=C(CSc1nc2c(c(=O)n1-c1ccc(F)cc1)SCC2)NCc1ccco1` reads -17.9%.
The result for `CCOC(=O)c1[nH]c(C)c(C(=O)OCc2ccccc2F)c1C` reads 14%; that for `COc1ccc(NS(=O)(=O)c2cccc(C(=O)NNC(=O)c3cc(C)oc3C)c2)cc1`, 11%; that for `CC(=O)N1CCOc2ccc(S(=O)(=O)NCc3ccc(Cl)cc3)cc21`, -19.6%.
The result for `CCN(CC)S(=O)(=O)c1cccc(C(=O)N/N=C(\C)c2cccs2)c1` reads 17.3%.
On to `Cc1cc(NC(=O)CCN2CCN(Cc3ccccc3)CC2)ccc1Br.Cl`, for which the “hERG current change (%, negative = inhibition) at 10uM” value is reported as -28%.
The result for `Cl.OC(COCc1ccc2c(c1)OCO2)CN1CCCCC1` (stereo not drawn) reads -2.96%; that for `Cc1ccc(NC(=O)CSc2ccc(Br)cc2)cc1S(=O)(=O)N1CCOCC1`, -30.9%; that for `COCCn1c(SCC(=O)Nc2ccc(F)cc2F)nc2c([nH]c3ccccc32)c1=O`, 8.08%.
Consider `O=C(CN1CCN(c2nc(-c3ccccc3)cs2)CC1)NNC(=O)c1ccco1`, for which the “hERG current change (%, negative = inhibition) at 10uM” value came to 0.128%.
The result for `N#CCCOC1(C#CCN2CCCC2)CCCCC1` reads 19.6%.
In the case of `Cc1ccc(C(=O)c2coc3ccc(O)c(CN4CCN(C)CC4)c23)cc1`, the “hERG current change (%, negative = inhibition) at 10uM” value is -51.2%.
In the case of `CS(=O)(=O)N1CCN(c2ccccc2NC(=O)c2cccc3ccccc23)CC1`, the “hERG current change (%, negative = inhibition) at 10uM” value was -29.6%.
On to `COC(=O)Oc1ccc(/C=N/NS(=O)(=O)c2ccccc2)cc1OC`, for which the “hERG current change (%, negative = inhibition) at 10uM” value was determined as 21.2%.
The result for `O=C(CSc1nc2ccccc2o1)N/N=C/c1ccco1` reads -3.55%; that for `COC(=O)[C@@H]1C[C@@]2(O)[C@H](O)[C@H](O)[C@H](O)C[C@H]2N1Cc1cccc2ccccc12`, 16%; that for `O=C(COc1ccccc1[N+](=O)[O-])N/N=C/c1ccc(OC(=O)c2ccco2)cc1`, 0.35%.
The result for `CCOc1ccc(Cn2c(=O)sc3ccccc32)cc1` reads 12.6%; that for `CC12CCC(C1)C(C)(C)C2OC(=O)c1ccccc1C(=O)O` (stereo not drawn), 18.3%; that for `COc1cccc(N(C(=O)Cn2nnc(-c3ccc(Cl)cc3)n2)C(C(=O)NCC2CCCO2)c2ccc(C)cc2)c1` (stereo not drawn), 22%.
As for `O=C(O)c1cc(-n2nnnc2SCc2ccc([N+](=O)[O-])cc2)ccc1Cl`, the “hERG current change (%, negative = inhibition) at 10uM” value was 12.3%.
With `Cc1ccc(Cl)cc1NC(=O)CNC(=O)N1CC(=O)Nc2ccccc21`, the “hERG current change (%, negative = inhibition) at 10uM” value was -5.91%.
The result for `COc1ccc(NC(=O)Cn2c(=O)cnc3ccccc32)cc1S(=O)(=O)N1CCCCC1` reads -10.9%; that for `CCOC(=O)CSc1nc2ccccc2c(=O)n1CC1CCCO1` (stereo not drawn), -6.58%; that for `O=C1CC(c2ccc3c(c2)OCCO3)Oc2ccc([N+](=O)[O-])cc21` (stereo not drawn), -1.11%.
The result for `Cc1cc2nc(/C=C/c3nc4cc(C)c(C)cc4[nH]3)[nH]c2cc1C` reads 25.9%; that for `CCN(CC)CCN1C(=O)C(=O)/C(=C(/O)c2ccc(S(=O)(=O)N3CCOCC3)cc2)C1c1ccc(C)cc1` (stereo not drawn), 18%.
The result for `COCCN(Cc1cc2cc(C)ccc2n2nnnc12)C(=S)Nc1ccc(C)cc1` reads -6.18%; that for `CC(C)(C)NC(=O)CSC(=Nc1cccc(F)c1)NC#N`, 8.94%; that for `COc1ccc(OC)c(NC(=S)NCc2ccco2)c1`, -3.95%.
On to `CCN(CC)c1ccc2nc3ccccc3[n+](CC)c2c1.[I-]`, for which the “hERG current change (%, negative = inhibition) at 10uM” value is -24.7%.
As for `CCO[C@H]1OC(C(=O)NCc2ccccc2)=C[C@@H](c2ccc(Br)cc2)[C@@H]1CCCO`, the “hERG current change (%, negative = inhibition) at 10uM” value is -26.2%.
As to `O=C(CSc1nnc(-c2ccccc2Cl)o1)Nc1ccc2c(c1)OCCO2`, the “hERG current change (%, negative = inhibition) at 10uM” value is listed as -5.63%.
The result for `CC(=O)c1c(O)cc(C)oc1=O` reads 25.5%; that for `CCCCN1CCNC[C@@H]1c1ccccc1`, 19%.
The result for `CN1/C(=C\C=Nc2ccc3ccccc3c2)C(C)(C)c2ccccc21` reads -74.8%; that for `COc1cc(CCN2C(=O)c3cccc4cccc(c34)C2=O)c(S(=O)(=O)N2CCC(C)CC2)cc1OC`, -24.6%; that for `CCOc1ccc(NC(=O)c2oc3ccccc3c2NC(=O)CC)cc1`, -20.6%.
The result for `CN(C)/C=C/C(=O)c1cnc(-c2ccccc2Cl)s1` reads -35.8%; that for `CC(c1ccccc1)n1c(S(=O)(=O)O)nc2ccccc21` (stereo not drawn), 11.1%; that for `CCCc1noc2c1C(c1cc(Br)ccc1F)C(C#N)=C(N)N2` (stereo not drawn), 12%.
As to `COc1ccc(CCNC(=O)COC(=O)c2cc(OC)c(OC)cc2OC)cc1OC`, the “hERG current change (%, negative = inhibition) at 10uM” value stood at 2.88%.
The result for `COc1ccc(Cn2c(=O)[nH]c3cc(C(=O)N4CCN(c5ccc(OC)cc5)CC4)ccc3c2=O)cc1` reads 10.1%; that for `COc1ccc(C(NC(C)=O)c2cc(Cl)c3cccnc3c2O)cc1` (stereo not drawn), 10.6%.
The result for `CCCCn1nnc(NC(=O)c2ccc(-c3cccc([N+](=O)[O-])c3)o2)n1` reads -68.5%; that for `COc1cc2c(cc1OC)C(c1cccc(Cl)c1Cl)CC(=O)N2` (stereo not drawn), 11.6%; that for `CC1=C(C#N)C(=O)OC(C)(C)C1`, 14.3%.
`CCOC(=O)c1sc2nccc(OC)c2c1N=CN(C)C`: the “hERG current change (%, negative = inhibition) at 10uM” value was determined as 10.2%.
The result for `COc1ccc(-c2noc3c2-c2nc(-c4ccc(C)cc4)sc2CC3)cc1` reads 20.2%; that for `COc1cccc(CN(C)C(=O)C2CCN(S(=O)(=O)c3ccc(C)cc3)CC2)c1OC`, -13%; that for `CN(C)c1ncnc(N(C)C)c1[N+](=O)[O-]`, 7.45%.
The result for `CC(=O)c1c(C)[nH]c(C(=O)CSc2nnc3ccccn23)c1C` reads -3.82%; that for `CCCc1cc(=O)[nH]c(SC(C)C(=O)Nc2ccc3c(c2)OCCO3)n1` (stereo not drawn), -7.38%.
The result for `CC(Cc1cccs1)NCc1ccc(Cl)cc1` (stereo not drawn) reads -15.7%; that for `COc1cc(/C=C2/C(=O)NN(c3cccc(F)c3)C2=O)ccc1OC(=O)c1ccco1`, -32.5%; that for `CC(C)CNC(=S)N1CCN(Cc2ccc3c(c2)OCO3)CC1.O=C(O)C(=O)O`, -29.3%.
With `Cc1cccc(C)c1NC(=O)NC1(C(=O)N2CCCCC2)CCCCC1`, the “hERG current change (%, negative = inhibition) at 10uM” value is given as 4.77%.
The result for `N=c1cc(C2(O)CCCCC2)n2c(nc3ccccc32)s1` reads -20.7%; that for `Cc1cccc(S(=O)(=O)NCCc2ccccc2)c1`, -2.12%; that for `CCCC(=O)NC(=S)Nc1ccc(CN2CCOCC2)cc1`, 25.2%.
The result for `Cc1[nH]n(-c2ccccc2)c(=O)c1C(C[N+](=O)[O-])c1ccc(Cl)cc1` (stereo not drawn) reads -6.43%.
The result for `CC1(C)Cc2nc(Cl)c(C#N)cc2CO1` reads 3.89%.
With `O=S(=O)(NC1Cc2ccccc2C1)c1ccccc1`, the “hERG current change (%, negative = inhibition) at 10uM” value was determined as 1.65%.
The result for `CC(=O)Cn1c(N2CCC(Cc3ccccc3)CC2)nc2c1c(=O)[nH]c(=O)n2C` reads 10.3%; that for `Cc1ccc(NC(=S)N(CCCN2CCCC(C)C2)Cc2ccco2)cc1C` (stereo not drawn), -76.2%; that for `COCCNC(=O)Cn1cc(C(=O)c2ccccc2F)c2ccccc21`, 12.5%.
The result for `COc1cc2c(cc1OC)C(Nn1cnnc1)=NC1(CCCC1)C2` reads 2.86%.

These data come from paper PMC4336329 (PLoS ONE, 2015).
